Molecules are shown by their SMILES. In all, about 310,000 compounds went through this assay and about 14,000 (4.5%) showed an effect of 50% or more. The effect is printed as a negative number. This is one part of the list.
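Also: peak tail current of the secondary pulse compared with the same well before compound.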

human ether-à-go-go-related gene (hERG) potassium channel, sequence (Q12809 whole entry, looked up): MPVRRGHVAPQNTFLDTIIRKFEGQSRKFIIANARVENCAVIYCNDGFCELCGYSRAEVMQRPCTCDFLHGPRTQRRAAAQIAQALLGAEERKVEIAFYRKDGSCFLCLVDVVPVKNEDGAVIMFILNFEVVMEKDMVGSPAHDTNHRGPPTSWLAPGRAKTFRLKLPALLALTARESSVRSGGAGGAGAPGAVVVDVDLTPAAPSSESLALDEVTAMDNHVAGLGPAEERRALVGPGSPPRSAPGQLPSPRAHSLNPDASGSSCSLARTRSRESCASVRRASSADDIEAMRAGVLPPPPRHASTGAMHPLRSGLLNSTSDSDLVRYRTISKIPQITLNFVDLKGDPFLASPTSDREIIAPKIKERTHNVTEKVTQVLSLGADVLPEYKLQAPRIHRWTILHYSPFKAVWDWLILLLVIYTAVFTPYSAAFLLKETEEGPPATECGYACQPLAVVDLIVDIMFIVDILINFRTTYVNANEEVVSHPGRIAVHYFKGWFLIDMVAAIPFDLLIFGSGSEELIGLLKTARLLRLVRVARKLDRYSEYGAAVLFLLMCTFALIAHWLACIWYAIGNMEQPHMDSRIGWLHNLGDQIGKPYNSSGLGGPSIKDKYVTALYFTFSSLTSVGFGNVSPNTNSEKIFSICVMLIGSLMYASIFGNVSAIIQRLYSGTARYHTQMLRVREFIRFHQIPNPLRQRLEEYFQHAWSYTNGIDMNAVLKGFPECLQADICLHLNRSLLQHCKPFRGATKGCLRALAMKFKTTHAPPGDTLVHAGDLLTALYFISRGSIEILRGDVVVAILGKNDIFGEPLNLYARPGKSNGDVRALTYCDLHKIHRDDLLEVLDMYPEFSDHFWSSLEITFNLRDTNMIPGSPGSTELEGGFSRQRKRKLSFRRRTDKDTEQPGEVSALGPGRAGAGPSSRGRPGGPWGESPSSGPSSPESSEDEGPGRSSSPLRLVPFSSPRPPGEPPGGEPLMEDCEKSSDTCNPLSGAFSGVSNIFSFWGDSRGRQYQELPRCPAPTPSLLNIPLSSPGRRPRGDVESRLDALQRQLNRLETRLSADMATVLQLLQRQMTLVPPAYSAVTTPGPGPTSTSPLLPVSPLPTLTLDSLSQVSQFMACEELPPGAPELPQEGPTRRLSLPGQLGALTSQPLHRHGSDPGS

The assay concerns the target human ether-à-go-go-related gene (hERG) potassium channel (human, UniProt Q12809). The assay can be described thus: primary screen, population patch clamp on CHO cells stably expressing hERG.
In the case of `COCCSc1nnc(NC(=O)CCS(=O)(=O)c2ccccc2)s1`, the “hERG current change (%, negative = inhibition) at 10uM” value amounted to 20.7%.
Then `COc1ccccc1N(CC(O)COc1c(C)cc(C)cc1C)S(=O)(=O)c1ccccc1` (stereo not drawn), with -0.161%; and `CC(CNC(=O)CCCn1ncn2c(cc3occc32)c1=O)c1ccccc1` (stereo not drawn), with -6.77%.
For the compound `COc1cc(/C=C2\C(=O)N(CCC#N)N=C2C)c(Br)cc1OC(C)C`, the “hERG current change (%, negative = inhibition) at 10uM” value is 3.15%.
Then `COC(=O)c1ccc(Oc2ccc3nnc(C)n3n2)cc1`, with -1.43%; and `Cc1ccc(S(=O)(=O)Nc2cc(C(F)(F)F)ccc2N2CCOCC2)cc1C`, with 2.05%; and `Cc1ccc(S(=O)(=O)Nc2c(C)nc3nc[nH]n3c2=O)c(C)c1`, with 29.1%.
Then `C=CCn1c(-c2cc(Cl)ccc2OC)n[nH]c1=S`, with 6.88%; and `C/C(=N\N=C1/SC(CC(=O)O)C(=O)N1c1ccccc1)c1ccc(C)cc1` (stereo not drawn), with 21.9%; and `Nc1nc(Cn2nnc(-c3ccccc3Cl)n2)nc(N2CCOCC2)n1`, with -54.4%.
As for `CCOc1cc(C(=O)OCC(=O)Nc2c(C)cccc2C)ccc1OCC(=O)N1CCOCC1`, the figure is 4.3%.
On to `CCN1CCN(CCc2nc3cc(NC(=O)COc4ccc(Cl)cc4)ccc3n2C)CC1`, for which the “hERG current change (%, negative = inhibition) at 10uM” value is given as -67.6%.
Consider `CCOC(=O)C1(CC2CCCCO2)CCN(Cc2nc3ccccc3nc2C)CC1` (stereo not drawn), for which the “hERG current change (%, negative = inhibition) at 10uM” value was -21.2%.
For the compound `NS(=O)(=O)c1ccc(N2CCCCCC2)c([N+](=O)[O-])c1`, the “hERG current change (%, negative = inhibition) at 10uM” value stood at 4.9%.
Regarding `CC(C)C(CCN1C(=O)CCC1=O)C1CCOC(C)(C)C1` (stereo not drawn), the “hERG current change (%, negative = inhibition) at 10uM” value worked out at 4.36%.
As for `COc1cc2c(cc1OC)C(c1cccc(F)c1)CC(=O)N2` (stereo not drawn), the figure is -0.986%.
For the compound `CC(=O)n1c(C=Nc2ccccc2)c(O)c2ccccc21`, the “hERG current change (%, negative = inhibition) at 10uM” value amounted to 7.78%.
As to `Cc1cc(-c2ccccc2)cc(C)[n+]1Cc1ccccc1.[O-][Cl+3]([O-])([O-])[O-]`, the “hERG current change (%, negative = inhibition) at 10uM” value was determined as 5.38%.
Then `COC(=O)CCCC1=CC2=C(c3ccccc3)C(=O)C(C)(OC(=O)C3CCCC3)C(=O)C2=CN1CCCCO` (stereo not drawn), with 20.5%.
As for `Nc1cc2ccccc2oc1=O`, the figure is 8.37%; as for `Cc1ccc(S(=O)(=O)N2CCCCC2)cc1NC(=O)Cn1c(=O)cnc2ccccc21`, 9.61%.
Then `CCOCCCNC(=O)CN1C(=O)COc2ccc(S(=O)(=O)N3CCCCCC3)cc21`, with 20.6%; and `CN(C)c1cc(C(F)(F)F)nc(-c2ccccn2)n1`, with -0.728%; and `CC(C)CC(=O)NC(=S)Nc1ccc(N2CCOCC2)c(Cl)c1`, with 3.67%.
On to `C1CCN(Cc2nnnn2C2CCCC2)CC1`, for which the “hERG current change (%, negative = inhibition) at 10uM” value is 11.4%.
As for `NS(=O)(=O)c1ccc(NCc2ccccc2OCc2ccccc2F)cc1`, the figure is -2.39%; as for `c1ccc(-c2nnc3ccc(N4CCCC4)nn23)cc1`, 7.51%.
As for `Cc1ccc(NC(=O)NCc2ccc3c(c2)OCO3)cc1C`, the figure is -36.1%.
Then `NC(=O)C1CCN(CCC(=O)Nc2ccc3c(c2)CCC3)CC1`, with -19.6%; and `Cc1cc(S(=O)(=O)N2CCCC2)ccc1OCC(=O)NCc1ccccc1`, with -11.8%; and `Cc1ccc2c(c1)oc(=O)n2CC(=O)c1ccccc1`, with 1.58%.
In the case of `Cc1ccsc1C1C(C#N)=C(N)OC2=C1C(=O)CC(C)C2` (stereo not drawn), the “hERG current change (%, negative = inhibition) at 10uM” value is -31.9%.
As for `CCOC(=O)c1c(C)c(C(=O)NCCc2ccccc2)c(C)n1C`, the figure is 1.27%.
As for `COc1ccccc1OCCCC(=O)Nc1ccc(N2CCOCC2)cc1`, the figure is 12%.
On to `O=C(CCl)Nc1ccc(Oc2cnc3ccccc3n2)cc1`, for which the “hERG current change (%, negative = inhibition) at 10uM” value amounted to 3.17%.
Then `COc1ccc(C2C(C(=O)OC(C)C)=C(C)N=c3s/c(=C\c4cccs4)c(=O)n32)cc1` (stereo not drawn), with 10.5%; and `CC(=O)N1CCOc2ccc(S(=O)(=O)NCC3CCC(C(=O)Nc4ncccc4C)CC3)cc21` (stereo not drawn), with -6.23%; and `O=C(/C=C/c1ccc(OC(F)F)cc1)OCC(=O)N1CCc2ccccc21`, with 12.7%.
As for `CC(C)/C=N/Nc1nc(-c2ccc(Br)cc2)cs1`, the figure is -24.8%; as for `CC1(c2ccc3ccccc3c2)NC(=O)N(CC(=O)NCC(C)(C)N2CCOCC2)C1=O` (stereo not drawn), -9.02%; as for `O=C(NNS(=O)(=O)c1ccc2ccccc2c1)C1CCN(Cc2ccccc2)CC1`, -44.8%.
Then `COc1ccc(NS(=O)(=O)NC(=O)c2cn(C)c3ccccc23)cc1`, with 20%; and `O=C(COC(=O)C1CC1)Nc1ccccc1Sc1ccccc1`, with -18.1%; and `N#CC(=NCc1cccnc1)C1=C(O)c2ccccc2C1=O`, with 1.89%.
For the compound `COc1ccc(-c2nnc(-c3cccnc3)o2)cc1`, the “hERG current change (%, negative = inhibition) at 10uM” value is -0.347%.

The record behind these values is publication PMC4336329 (PLoS ONE, 2015).
